Test results from PubChem BioAssay AID504832 (National Center for Advancing Translational Sciences (NCATS), 2011).
The campaign covered roughly 310,000 compounds. About 18,000 (5.8%) were called active. The shares of active, inactive and inconclusive entries below differ from those in the screen. Calls come from the whole dose curve; as a rule, active = well fitted inhibition curve with a large enough effect; inconclusive = small, poorly fitted or top-dose-only effect, or another doubt; inactive = no such curve, though single readings can be large or run the other way. Potencies of inconclusive entries are left out as doubtful fits.

Assay: Primary qHTS for delayed death inhibitors of the malarial parasite plastid, 48 hour incubation
Conditions: P. falciparum luciferase growth in erythrocytes; series mostly up to 28.7 µM; activity change, negative = inhibition: at the top concentration
Outline: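 In quantitative HTS format, infected erythrocytes bearing luciferase-reporter parasites were treated for a single generation at 37 C. Luminescence after adding detection reagent served as the growth measure.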
% is set by controls: 0 for no effect and ±100 for the full control effect; potency is the fitted concentration of half-maximal effect; tags give direction and shape of the fitted curve.

SMILES	Potency	activity change, negative = inhibition
COC(=O)c1cccc(S(=O)(=O)N2CCC(c3nc4ccccc4o3)CC2)c1	inconclusive [inhibitor, single point]	–
Cc1nc2ccccn2c1C(=O)N/N=C/c1ccc([N+](=O)[O-])o1	inconclusive [inhibitor, full curve]	–
Nc1nc(Nc2ccc(Cl)cc2)nc(NCCO)c1[N+](=O)[O-]	inconclusive [inhibitor, partial curve, poor fit]	–
CCCCNC(=S)N1CCn2cccc2C1c1ccccc1 (centres undefined)	active: 4.65 µM	–
CCSc1cc(C2C(C#N)=C(N)OC(C)=C2C(=O)OC)c(C)o1 (centres undefined)	inconclusive [inhibitor, single point]	–
COc1ccc(C(NC(=O)c2cc(OC)ccc2OC)c2ccccc2)cc1 (centres undefined)	inconclusive [inhibitor, single point]	–
CCOC(=O)N1CCN(C(=O)CNC(=O)c2nn(-c3ccc(OC)c(OC)c3)c(=O)c3ccccc23)CC1	inconclusive [inhibitor, partial curve, poor fit]	–
CC(C)c1nnc(NC(=O)CCS(=O)(=O)Cc2ccccc2)s1	–	inactive: 14.8%
COC/C=C/C1=CC2=CC(=O)C(C)(OC(=O)c3cnc4ccccc4n3)C(=O)C2=CN1CCN1CCOCC1 (centres undefined)	inconclusive [inhibitor, full curve, poor fit]	–
CC(C)c1ccc(C2CC(=O)N3CN(Cc4ccco4)CSC3=C2C#N)cc1 (centres undefined)	inconclusive [inhibitor, single point]	–
CCCCN(CC(O)COc1cccc(C)c1)CC(O)COc1cccc(C)c1 (centres undefined)	inconclusive [inhibitor, single point]	–
CC(C)CC(c1nnnn1CCc1ccccc1)N1CCN(C(=O)c2ccco2)CC1 (centres undefined)	inconclusive [inhibitor, single point]	–
CC(C)(C)n1ncc2c(=O)n(CC(=O)NCc3ccc(F)cc3)cnc21	–	inactive: 281%
CCOCCOC(=O)NCCCCCCNC(=O)OCCOCC	inconclusive [inhibitor, single point]	–
COc1ccc(N(CC(=O)NCc2ccccc2)C(=O)Cn2nnc(-c3ccccc3F)n2)cc1OC	inconclusive [inhibitor, partial curve, poor fit]	–
O=c1oc2ccccc2nc1/C=C(\O)c1ccc(Br)cc1	active: 1.85 µM	–
C[n+]1c2n(c3ccccc31)N=C(c1cc(C(C)(C)C)c(O)c(C(C)(C)C)c1)CS2	inconclusive [inhibitor, partial curve]	–
Cc1cnc(C(=O)OCC(=O)Nc2ccc(C)c(S(=O)(=O)N3CCCCC3)c2)cn1	–	inactive: -73.3%
CCc1nc2ccccc2c(C(=O)NCc2ccccc2)c1C	inconclusive [inhibitor, single point]	–
Cc1ccc(C(OCC(O)CNC(C)c2ccccc2)c2ccccc2)cc1 (centres undefined)	inconclusive [inhibitor, partial curve]	–
COc1cc(/C=N/n2c(COc3ccccc3)n[nH]c2=S)cc(OC)c1OC(C)=O	inconclusive [inhibitor, partial curve, poor fit]	–
Cc1cccc(C)c1N(CC(=O)N(C)Cc1ccccc1)S(C)(=O)=O	inconclusive [inhibitor, single point]	–
Cc1ccc(-c2nc(CSCC(=O)NCCCN3CCOCC3)c(C)o2)cc1	–	inactive: 36.9%
COc1ccc(Nc2nc(C(=O)N(CCO)Cc3ccccc3)cs2)cc1	inconclusive [inhibitor, single point]	–
Cc1cccc(Nc2n[nH]c(C)c2[N+](=O)[O-])c1	–	inactive: 132%

SMILES	Potency	activity change, negative = inhibition
N#C/C(=N/Nc1ccc(OC(F)(F)F)cc1)C(N)=S	active: 6.57 µM	–
C=C(Br)Cn1cnc2ccccc21	inconclusive [inhibitor, single point]	–
O=C(C1CCC(=O)N(C2CCCC2)C1)N1CCN(c2ccc(Cl)cc2)CC1 (centres undefined)	inconclusive [inhibitor, partial curve]	–
COc1ccc(C)cc1NC(=O)CCC(=O)Nc1ccc2nc(N3CCN(C)CC3)cc(C)c2c1	inconclusive [inhibitor, single point]	–
Cc1cccc(NC(=S)N2CCN(c3ccccc3F)CC2)c1C	–	inactive: 27%
Cn1c(SCC(=O)Nc2ccccc2)nnc1-c1ccc2nonc2c1	–	inactive: 12.8%
C/C(Cc1ccccc1)=N\NC(=O)CNC(=O)COc1cccc(C)c1	–	inactive: -9.41%
CCOc1[nH]n(-c2ccccc2)c(=O)c1C=NCc1cccnc1	inconclusive [inhibitor, full curve, poor fit]	–
COc1ccc2nc(SCC(=O)NCc3ccc(S(N)(=O)=O)cc3)[nH]c2c1	–	inactive: 18%
COc1ccc(Nc2c3ccccc3nc3ccccc23)cc1	active: 4.15 µM	–
CCN(CC)c1nc2ccccc2[nH]c1=O	–	inactive: -2.4%
COC(=O)C1=C(N)Oc2c(oc(CO)cc2=O)C1c1ccc(F)cc1 (centres undefined)	inconclusive [inhibitor, full curve, poor fit]	–
CCOC(=O)c1cccc(NC(=O)/C=C/c2ccc3c(c2)OCO3)c1	–	inactive: 196%
Oc1[nH]c2ccccc2c1N=NC(=S)N1CCOCC1	active: 0.586 µM	–
CCC(C)Sc1ccc(-c2nc3ccc(C)cn3c2NC2CCCCC2)cc1 (centres undefined)	active: 11.7 µM	–
COc1ccc2c(c1)[nH]c(=O)c1sc3ccccc3c12	–	inactive: 36.4%
CC(=O)c1cccc(CN2CCCC(C(=O)Nc3ccc(-c4ccco4)cc3)C2)c1 (centres undefined)	active: 10.4 µM	–
CC(C)OP(=O)(c1ccc(N(C)C)cc1)C(Nc1ccccc1)c1ccccc1 (centres undefined)	active: 8.28 µM	–
C=CCn1c(C)cc(-c2csc(NC)n2)c1C	inconclusive [inhibitor, single point]	–
Cc1nn(C)c(C)c1NC(=O)CN1CCC(O)(c2ccc3c(c2)OCO3)CC1	–	inactive: 11.5%
O=C1C2CCCN2C(=O)N1CCCCN1CCN(c2cccc(Cl)c2)CC1 (centres undefined)	–	inactive: -9.82%
CCOc1ccc(NC(=O)CN(C)C(=O)c2cc(S(=O)(=O)N3CCCCC3)ccc2C)cc1OCC	–	inactive: -13.1%
Cc1nc2ccc(NC(=O)N3CCCCC3)cc2nc1C	–	inactive: -0.407%
O=C(CCc1c[nH]c2ccccc12)NC(Cc1ccccc1)C(=O)O (centres undefined)	–	inactive: 4.24%
O=C(CN1CCC(NC(=O)Nc2ccccc2)CC1)Nc1ccc([N+](=O)[O-])cc1	inconclusive [inhibitor, partial curve, poor fit]	–

SMILES	Potency	activity change, negative = inhibition
Cc1cc(C(=O)N2CCN(C/C=C/c3ccccc3)CC2)cs1	–	inactive: -7.53%
C=CCN(c1ccccc1C(=O)O)S(=O)(=O)c1ccc(NC(=O)OC)cc1	active: 2.33 µM	–
Cc1cccc(NC(=S)N(CCc2nc3cc(C)c(C)cc3[nH]2)Cc2cccnc2)c1	inconclusive [inhibitor, partial curve, poor fit]	–
CC(=O)Nc1cccc(NC(=O)CSc2nnc3ccc(-c4ccncc4)nn23)c1	–	inactive: 34.3%
CNc1ccccc1C(C)(C)c1cc(-c2cc(C)cc(C)c2)no1	inconclusive [inhibitor, single point]	–
CCCc1nc2sc3ccccc3c(=O)c2c(=O)n1Cc1ccco1	–	inactive: -9.81%
CCCCN1C2CCCC1CC(NC(=O)c1cccc(Cl)c1)C2 (centres undefined)	inconclusive [inhibitor, single point]	–
CC(C)(C)c1ccc(C(=O)NCC(=O)N2CCCC2)cc1	–	inactive: 7.61%
C/C(=N\OC(=O)c1ccc(F)cc1)c1sc(-c2ccccc2)nc1C	–	inactive: 78.6%
O=C(NC1CC2CCC(C1)N2Cc1nnnn1Cc1ccco1)NC12CC3CC(CC(C3)C1)C2 (centres undefined)	active: 11.7 µM	–
CCCc1nc2oc3c(NCC(C)O)ncnc3c2c2c1CCCC2 (centres undefined)	inconclusive [inhibitor, single point]	–
O=C1C2N=NN(CC(=O)N3N=C(c4cccc5ccccc45)CC3c3ccccc3)C2C(=O)N1c1ccccc1 (centres undefined)	inconclusive [inhibitor, single point]	–
CCOC(=O)c1ccc(N(C(=O)c2ccco2)C(C(=O)NC2CCCCC2)c2ccncc2)cc1 (centres undefined)	inconclusive [inhibitor, partial curve]	–
CCOc1ccc(NS(=O)(=O)c2ccc(C(=O)NC3CCN(Cc4ccccc4)CC3)cc2)cc1	inconclusive [inhibitor, single point]	–
CN(C)S(=O)(=O)c1ccc(Cl)c(NC(=O)COC(=O)CNC(=O)c2ccco2)c1	–	inactive: -7.19%
O=C(O)CN1C(=O)/C(=C\c2cc(Br)ccc2OCc2ccccc2Cl)SC1=S	–	inactive: 8.11%
O=C(Nc1ccc([N+](=O)[O-])cc1)Nc1ccc2c(c1)OCCO2	–	inactive: 181%
NC(=O)CSc1nc2c(sc3ccccc32)c(=O)n1CCCC(=O)NCC1CCCO1 (centres undefined)	inconclusive [inhibitor, partial curve]	–
C=CCC1=C/C(=C\c2c(N)n3nc(CC(=O)N4CCCC4)sc3nc2=O)C=C(OC)C1=O	inconclusive [inhibitor, single point]	–
c1ccc(-c2nnc(CN3CCCc4ccccc43)o2)cc1	inconclusive [inhibitor, single point]	–
O=c1cc(NCc2ccccc2)nc2n1CCCS2	inconclusive [inhibitor, partial curve, poor fit]	–
CCCC(=O)Nc1nc(C)c(-c2csc(Nc3ccccc3OC)n2)s1	inconclusive [inhibitor, partial curve, poor fit]	–
COc1ccccc1C(=O)NNC(=O)c1ccncc1	–	inactive: 76.8%
COc1ccc(NC(=O)c2sc3nc(-c4cccnc4)ccc3c2N)cc1OC	inconclusive [inhibitor, full curve, poor fit]	–
